{"source": "ChEMBL document CHEMBL1156829", "note": "In all, about 5,400 compounds were measured (“IFI”: median about 2, highest 2% from about 22 on). The list shows a part of the results.", "data": [{"assay": "NOVARTIS: Inhibition Frequency Index (IFI) - the number of HTS assays where a compound showed > 50% inhibition/induction, expressed as a percentage of the number of assays in which the compound was tested.", "type": "functional", "units": {"IFI": "%"}, "values": [{"compound": "Cn1c(SCCCCNC(=O)c2cc([N+](=O)[O-])cc([N+](=O)[O-])c2)nc(-c2ccccc2)c1-c1ccccc1", "IFI": 1.87}, {"compound": "CCCc1c(C)nc2ccccc2c1O", "IFI": 1.59}, {"compound": "COc1ccc(-n2c(SC(C)C)nc3sc4c(c3c2=O)CCN(C)C4)cc1", "IFI": 2.44}, {"compound": "CC(=O)C(=NNc1cc(C(F)(F)F)cc(C(F)(F)F)c1)C(C)=O", "IFI": 1.45}, {"compound": "CCCc1c(CC)c(=N)c2ccccc2n1C", "IFI": 7.69}, {"compound": "COc1ccc([C@@H]2C[C@H](OC(=O)c3ccc4c(c3)OCO4)C(=O)N2C)cc1", "IFI": 0}, {"compound": "COc1ccc(CN2CCN(C(=O)c3cccnc3)CC2)cc1OC", "IFI": 0}, {"compound": "Cc1ccc(NC(=O)C2CSC(c3cccc(F)c3)N2C(=O)c2ccc(C(C)(C)C)cc2)cc1", "note": "(configuration not stated)", "IFI": 3.06}, {"compound": "CCCN(CC(=O)Nc1cc(C(C)(C)C)nn1-c1cccc(C)c1C)C(=O)C(C)(C)C", "IFI": 0.917}, {"compound": "COc1ccc(Nc2nc(NN=Cc3cccc(I)c3)nc(Nc3ccc([N+](=O)[O-])cc3)n2)cc1", "IFI": 5.81}, {"compound": "CCC(c1nc2cc(Cl)ccc2c(=O)n1CC)N(CC)C(=O)c1ccc2ccccc2c1", "note": "(configuration not stated)", "IFI": 1.85}, {"compound": "O=C(c1ccccc1)N1CCc2nc(Cc3ccc(F)cc3Cl)sc2C1", "IFI": 1.39}, {"compound": "CCCCOC(=O)c1ccc(NC2=C(c3ccc(OC)cc3)C(=O)c3ccccc32)cc1", "IFI": 0}, {"compound": "Cc1ccc(Cn2c(=N)n(CC(O)c3ccc(Cl)c(Cl)c3)c3ccccc32)cc1", "note": "(configuration not stated)", "IFI": 0}, {"compound": "CC[n+]1c(C)cc2c([nH]c3ccccc32)c1C", "IFI": 3.03}, {"compound": "COCCNCC(O)CON=C1c2ccccc2-c2ccccc21", "note": "(configuration not stated)", "IFI": 0}, {"compound": "CC(Cc1ccsc1)Nc1nc2nonc2nc1N(C)C", "note": "(configuration not stated)", "IFI": 0}, {"compound": "O=C(O)c1c[nH]c2cc(N3CCCCCC3)c(F)cc2c1=O", "IFI": 0}, {"compound": "Nc1c(Cl)c(Cl)nc(C(Cl)(Cl)Cl)c1Cl", "IFI": 1.39}, {"compound": "Cc1ccc(C(CCNc2ncnc3c2[nH]c2ccccc23)c2ccco2)cc1", "note": "(configuration not stated)", "IFI": 9.09}, {"compound": "Cc1ccc(N=C2S/C(=C\\c3c(Cl)cccc3Cl)C(=O)N2c2ccc(C)c(C)c2)cc1C", "IFI": 0}, {"compound": "CCC(c1nc2ccccc2c(=O)n1-c1ccc(Br)cc1)N(CCc1ccccc1)C(=O)c1cccc(C(F)(F)F)c1", "note": "(configuration not stated)", "IFI": 1.87}, {"compound": "CC1(C)Cc2c(sc(NC(=O)CCl)c2C#N)CO1", "IFI": 8.33}, {"compound": "CCOC(=O)c1c[nH]c2c(CC)cccc2c1=O", "IFI": 1.59}, {"compound": "COc1ccc2nc(C)cc(Nc3ccc(Br)cc3)c2c1", "IFI": 3.03}, {"compound": "Cc1ccc(C)c(S(=O)(=O)N=C2C=C(SCC(=O)O)C(=O)c3ccccc32)c1", "IFI": 6.25}, {"compound": "C=C(Cl)CSc1nnc(CCNC(=O)c2ccc(C)cc2)n1-c1ccc(F)cc1", "IFI": 1.72}, {"compound": "O=C(Nc1ccc2nc3n(c(=O)c2c1)CCCCC3)C(=O)N1CCN(c2cccc(Cl)c2)CC1", "IFI": 4.35}, {"compound": "Cc1cccc(CC(=O)N2CCC[C@@H]3CN(C(=O)CCc4cccnc4)CC[C@@H]32)c1", "IFI": 0.98}, {"compound": "Cc1cc(N2CCCCC2)nc2ccc(NC(=O)c3cccc([N+](=O)[O-])c3)cc12", "IFI": 8.06}, {"compound": "CCC(Nc1ccc(OC)cc1)=C1C(=O)CC(C)(C)CC1=O", "IFI": 0}, {"compound": "COc1ccc2nc(-c3ccccc3)cc(O)c2c1", "IFI": 14.2}, {"compound": "N#Cc1c(N)nc(SCC(=O)c2ccc(Cl)cc2)c(C#N)c1-c1ccco1", "IFI": 0.714}, {"compound": "CCN(CC)CCCC(C)Nc1ccnc2ccc(-c3ccccc3)cc12", "note": "(configuration not stated)", "IFI": 7.69}, {"compound": "Fc1ccccc1Nc1nc(NCc2ccccc2)c2ccccc2n1", "IFI": 7.14}, {"compound": "CC(C)(C)NCC(O)Cn1c2ccc(Br)cc2c2cc(Br)ccc21", "note": "(configuration not stated)", "IFI": 1.63}, {"compound": "COc1ccc(S(=O)(=O)N=C2C=C(Nc3ccc(O)cc3)C(=O)c3ccccc32)cc1", "IFI": 23.1}, {"compound": "Cc1ccc(NC(=O)c2c(I)cnn2C)cc1[N+](=O)[O-]", "IFI": 2.35}, {"compound": "COCCCNC(=O)CSCc1nc(-c2ccccc2F)oc1C", "IFI": 0}, {"compound": "CCOc1ccccc1C1NC(=O)NC(C)=C1C(=O)OCC(F)(F)C(F)(F)F", "note": "(configuration not stated)", "IFI": 1.16}, {"compound": "Cc1cc(Nc2cccc(C(F)(F)F)c2)nc2ccc(NC(=O)c3cncc(Br)c3)cc12", "IFI": 0}, {"compound": "O=C(c1cnsn1)N1CCCC(COc2cccc(CN3CCC(Cc4ccccc4)CC3)c2)C1", "note": "(configuration not stated)", "IFI": 1.94}, {"compound": "Nc1ccc(-c2nc3cc(Cc4ccc5[nH]c(-c6ccc(N)cc6)nc5c4)ccc3[nH]2)cc1", "IFI": 10.3}, {"compound": "OC(CN1CCN(c2ccnc3cc(Cl)ccc23)CC1)CN1CCN(c2ccnc3cc(Cl)ccc23)CC1", "IFI": 6.67}, {"compound": "COc1ccc2nc3ccccc3c(N)c2c1", "IFI": 0.99}, {"compound": "CN1CCN(Nc2ccnc3cc4ccccc4cc23)CC1", "IFI": 7.14}, {"compound": "O=c1oc(-c2ccccc2F)nc2sc3c(c12)CCCC3", "IFI": 1.04}, {"compound": "COc1ccc2cc(CNCCCO)c(N3CCN(c4ccc(F)cc4)CC3)nc2c1", "IFI": 1}, {"compound": "C=CCNCc1cc(-c2cc(OC)ccc2OC)ccc1O", "IFI": 0.848}, {"compound": "O=C(O)CS(=O)(=O)c1ccc(C(=O)NCC(c2cccnc2)N2CCOCC2)cn1", "note": "(configuration not stated)", "IFI": 1.37}, {"compound": "CCOC(=O)c1c(NC(=O)C(C)Sc2ncnc3c2oc2ccccc23)sc2c1CCC2", "note": "(configuration not stated)", "IFI": 8.57}, {"compound": "CCC(=O)N1CCc2cc(S(=O)(=O)N3CCN(c4cccc(C(F)(F)F)c4)CC3)ccc21", "IFI": 5.71}, {"compound": "CCCCC(CC)C(=O)N1CCN(C(CC)c2nc3ccccc3c(=O)n2C)CC1", "note": "(configuration not stated)", "IFI": 0}, {"compound": "O=C(CCl)Nc1ccc(N2CCCCCC2)cc1", "IFI": 0}, {"compound": "O=C(Nc1ccc(F)c(Cl)c1)c1c2c(nc3ccccc13)CCN(Cc1ccccc1)C2", "IFI": 3.03}, {"compound": "CCOC(=O)c1ccc(N2C(=O)c3[nH]nc(C)c3C2c2ccccc2OC)cc1", "note": "(configuration not stated)", "IFI": 0}, {"compound": "FC(F)(F)c1cccc(-c2cc(NCCCn3ccnc3)nc(-c3ccncc3)n2)c1", "IFI": 2.04}, {"compound": "CCN1CCN(Cc2ccc(N(CC)CC)cc2)CC1", "IFI": 0}, {"compound": "CCCCOc1cccc(C(=O)N(Cc2cccs2)c2ccc(OC)cc2)c1", "IFI": 0}, {"compound": "O=C1CC(c2ccccc2)CC2=C1C(c1cccc(Cl)c1Cl)Nc1ccccc1N2", "note": "(configuration not stated)", "IFI": 4.71}, {"compound": "CC(C)N1CCc2c(sc(NC(=O)C(C)(C)C)c2C(N)=O)C1", "IFI": 0}, {"compound": "CC(C)(C)c1nn(-c2ccc(Cl)cc2)c2[nH]c(=O)c(CNCc3ccccc3)cc12", "IFI": 2.56}, {"compound": "Cc1ccn2c(NC(C)(C)CC(C)(C)C)c(-c3ccccc3OC(=O)c3ccc(Cl)cc3)nc2c1", "IFI": 3.74}, {"compound": "CCCCn1c(=N)c(C(=O)NC(C)c2ccccc2)cc2c(=O)n3cccc(C)c3nc21", "note": "(configuration not stated)", "IFI": 0}, {"compound": "CC(C)C[C@H](NC(=O)N1CCOCC1)C(=O)N[C@H](/C=C/S(=O)(=O)c1ccccc1)CCc1ccccc1", "IFI": 4.44}, {"compound": "CCCCCCc1cc2cc(-c3nc4ccccc4[nH]3)c(=Nc3ccccc3C)oc2cc1O", "IFI": 0}, {"compound": "c1cc(C2=NCCN2)ccc1OCCCOc1ccc(C2=NCCN2)cc1", "IFI": 1.83}, {"compound": "COc1cccc(CCNC(=O)c2ccc(OC3CCN(CC(c4ccccc4)c4ccccc4)CC3)c(OC)c2)c1", "IFI": 2.82}, {"compound": "Cc1ccc(C(C(=O)NC2CCCCC2)N(C(=O)Cn2nnc3ccccc32)c2ccc(S(=O)(=O)NCC3CCCO3)cc2)o1", "note": "(configuration not stated)", "IFI": 1.8}, {"compound": "CCN(CC)CCCN(Cc1cc2c(C)cc(C)cc2[nH]c1=O)C(=S)NCCCN(C)C", "IFI": 2.54}, {"compound": "CN1CCN(c2ccc(Nc3ccnc4cc(Cl)ccc34)cc2Cl)CC1", "IFI": 8.33}, {"compound": "Cc1ccc(Nc2nc(NN=Cc3ccc(-c4ccc(Cl)c([N+](=O)[O-])c4)o3)nc(N3CCOCC3)n2)c(Br)c1", "IFI": 0}, {"compound": "c1ccc2c(c1)CSc1sccc1C2=C1CCNCC1", "IFI": 0}, {"compound": "CCCc1ccc(C(=O)NC(=O)c2ccccc2O)cc1", "IFI": 6.11}, {"compound": "Cn1nc(C(F)(F)F)c(-c2ccc(Br)cc2)c1NC(=O)Nc1ccc(F)cc1F", "IFI": 0.84}, {"compound": "O=C1C(Sc2nnc[nH]2)=CC(=NS(=O)(=O)c2cccs2)c2ccccc21", "IFI": 25}, {"compound": "O=C(c1ccc(Cl)cc1Cl)N1CCCC(C(F)(F)F)C1", "note": "(configuration not stated)", "IFI": 0}, {"compound": "CCCOC(=O)C1=C(C)NC2=C(C(=O)CC(c3ccc(OC)cc3)C2)C1c1cccc(Cl)c1Cl", "note": "(configuration not stated)", "IFI": 7.14}, {"compound": "COc1ccc(C2CC(=O)C3=C(C2)NC(C)=C(C(=O)OC2CCCC2)C3c2ccccc2OC)cc1OC", "note": "(configuration not stated)", "IFI": 2.38}, {"compound": "N#C/C(=C\\c1cn(Cc2ccc(Cl)cc2Cl)c2ccccc12)c1nc2ccccc2[nH]1", "IFI": 0}, {"compound": "CCOC(=O)C1=C(C)NC2=C(C(=O)CC(c3ccccc3)C2)C1c1ccccc1Cl", "note": "(configuration not stated)", "IFI": 5.95}, {"compound": "O=C1/C(=C/c2ccccc2)SC(=Nc2ccccc2)N1C1CCCCC1", "IFI": 4.6}, {"compound": "Cc1ccccc1NC(c1cccc(Cl)c1)c1nnnn1C1CCCCC1", "note": "(configuration not stated)", "IFI": 0}, {"compound": "O=C(Cn1ccc(=NCc2ccccc2)cc1)c1cccc([N+](=O)[O-])c1", "IFI": 0}, {"compound": "Cc1ccc(NC(=O)C2CC3c4ccccc4C2c2ccccc23)cc1", "note": "(configuration not stated)", "IFI": 0}, {"compound": "COc1cc(-c2nc3ccc(N4CCN(C)CC4)cc3[nH]2)cc(OC)c1OC", "IFI": 6.02}, {"compound": "COC(=O)C1=C(C)NC2=C(C(=O)CC(C)(C)C2)C1c1ccccc1[N+](=O)[O-]", "note": "(configuration not stated)", "IFI": 2.3}, {"compound": "CC(C)(C)c1ccc(C(=O)Nc2ccc(NC(=O)c3ccc(-c4ccc([N+](=O)[O-])cc4)o3)cc2)cc1", "IFI": 0}, {"compound": "COc1cccc2c1C(=O)c1c(O)c3c(c(O)c1C2=O)C[C@@](O)(C(=O)CO)C[C@@H]3O[C@@H]1C[C@H](N)[C@H](O)[C@H](C)O1", "IFI": 25.6}, {"compound": "CC[n+]1c(/C=C2\\C=C(C)CC(C)C2)sc2ccccc21", "note": "(configuration not stated)", "IFI": 7.14}, {"compound": "Cc1cc(C)c(C(Nc2ccccn2)c2ccc3cccnc3c2O)c(C)c1", "note": "(configuration not stated)", "IFI": 9.52}, {"compound": "CCS/C(Cl)=C(/NC(=O)c1ccccc1)[P+](c1ccccc1)(c1ccccc1)c1ccccc1", "IFI": 3.57}, {"compound": "COCCN1Cc2cccc(C(=O)Nc3ccc4c(c3)OCCO4)c2C1=O", "IFI": 0}, {"compound": "CCOC(=O)C1=C(c2ccccc2)N=c2sc(=Cc3c(C)n(Cc4ccc(F)cc4)c4ccccc34)c(=O)n2C1c1cccc(OC)c1OC", "note": "(configuration not stated)", "IFI": 4.6}, {"compound": "Cc1ccccc1N=Nc1ccc(NC(=O)c2ccco2)c(C)c1", "IFI": 3.79}, {"compound": "CSc1nnc(NC(=O)C2CC2)s1", "IFI": 0}, {"compound": "CCOC(=O)C1=C(c2ccccc2)N=c2sc(=Cc3cc(OC)c(OC)c(OC)c3)c(=O)n2C1c1c(OC)ccc2ccccc12", "note": "(configuration not stated)", "IFI": 3.49}]}]}
